Data as given in PubChem BioAssay AID1345082 (National Center for Advancing Translational Sciences (NCATS), 2018).
Values joined by “and” are separate entries in the source; they are usually repeats but may differ in a detail not shown here. Equal entries are not always repeated. The whole screen tested about 94,000 compounds, of which about 4,000 (4.3%) were called active. The inconclusive results got no clear call from the source; some entries with a clear call stand among them for comparison. Calls follow the shape of the dose curve; as a rule, active = well fitted inhibition curve with a large enough effect; inconclusive = small, poorly fitted or top-dose-only effect; inactive = no such curve, though single readings can be large or run the other way. Where the call is inconclusive, the potency comes from a doubtful curve fit.
Potency is read from the fitted curve at half-maximal effect; tags tell the direction and shape of the fitted curve.

Assay: Cytotoxic Profiling in NIH 3T3 Cell Line of Diverse Libraries Using Quantitative High-Throughput Screening; also: nearly all actives have a fitted effect of over 55% in size
Conditions: NIH 3T3 viability, CellTiter-Glo ATP luminescence, 48-72 h; series mostly up to 96.7 µM
How it was run: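 Cytotoxicity is measured as loss of cellular ATP: NIH 3T3 cells (400/well) are exposed to compound for 48 or 72 hr at 37 °C, then CellTiter-Glo luminescence is imaged after 10 min at room temperature.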
With `CCN1c2cc(C(=O)Nc3ccc(C)c(F)c3)ccc2C(=O)N2CCCCC21` (configuration not stated) the Potency was active: 28.2 µM.
With `O=C1CN(C(=O)CCc2ccccc2)CC(O)CN1CCCc1ccccc1` (configuration not stated) the Potency was inconclusive: 56.2 µM [inhibitor, partial curve, poor fit].
In the case of `COCCN1Cc2cc(OC)ccc2N(CC(O)COc2ccc(OC)cc2)CCC1=O` (configuration not stated), the Potency is reported as inconclusive: 56.2 µM [inhibitor, partial curve, poor fit].
In the case of `CCOc1ccc(C(=O)NC2CCN(c3ccc(C)c(C)c3)C2=O)cc1` (configuration not stated), the Potency is reported as inconclusive: 50.1 µM [inhibitor, partial curve, poor fit].
For `CN1CC(=O)N(C2CCCC2)Cc2c(NCc3cccc(C(F)(F)F)c3)ncnc21`, the Potency was inconclusive: 39.8 µM [inhibitor, partial curve, poor fit].
In the case of `Cc1nc(C(=O)N2CCCC(CCc3cccc(C(F)(F)F)c3)C2)c(C)o1` (configuration not stated), the Potency is reported as inconclusive: 44.7 µM [inhibitor, partial curve, poor fit].
In the case of `C[S+](=O)([O-])N1CCN(Cc2ccccc2-c2ccccc2F)CC1`, the Potency is reported as “inactive”.
In the case of `CNC(=O)N1CCC(C2CCN(C(=O)c3ccc(F)cc3Cl)C2)CC1` (configuration not stated), the Potency is reported as inconclusive: 70.8 µM [inhibitor, single point].
For `Cc1nc2cccnc2n1CC1CCCN(S(=O)(=O)Cc2ccc(Cl)cc2)C1` (configuration not stated), the Potency was inconclusive: 39.8 µM [inhibitor, partial curve, poor fit].
In the case of `COc1ccc(CNC(=O)CCc2conc2-c2ccc(C)cc2)cc1`, the Potency is reported as inconclusive: 50.1 µM [inhibitor, partial curve, poor fit].
For `COc1ccccc1-c1ccc(CN2CCCC(c3nc4ccc(C)cc4c(=O)[nH]3)C2)cc1` (configuration not stated), the Potency was active: 28.2 µM and inconclusive: 15.8 µM [inhibitor, full curve, poor fit].
With `CN(Cc1ccccc1)Cc1cc(CC2(NCc3ccc(N(C)C)cc3)COC2)no1` the Potency was inconclusive: 89.1 µM [inhibitor, partial curve, poor fit].
With `O=C(NCCCc1ccccc1)C1CN(C2CCCCC2)C(=O)N1` (configuration not stated) the Potency was inconclusive: 89.1 µM [inhibitor, partial curve, poor fit].
With `COc1ccc(-c2ccc3nnc(CNC(=O)c4ccc(C)cc4C)n3n2)cc1` the Potency was “inactive”.
In the case of `O=C1CCN(CC(O)C(F)(F)F)c2cc3c(cc2CN1Cc1ccco1)OCO3` (configuration not stated), the Potency is reported as inconclusive: 44.7 µM [inhibitor, partial curve].
With `COc1cccc(CCC(=O)NC2CCN(C(=O)c3cc4c(=O)[nH]c(C)cn4n3)CC2)c1` the Potency was “inactive”.
In the case of `CO[C@H]1[C@H](NC(=O)c2cc(C)oc2C)c2ccccc2C12CCNCC2`, the Potency is reported as “inactive”.
In the case of `CC(C)CN1C(=O)COC[C@@H]1[C@H](O)c1ccc(NC(=O)C2CCCCC2)cc1`, the Potency is reported as “inactive”.
In the case of `COc1ccc2[nH]c3c(c2c1)CCNC31CCN(C(=O)C2CCCC2)CC1`, the Potency is reported as inconclusive: 31.6 µM [inhibitor, partial curve].
With `Cc1nc(CN2Cc3nc(-c4ccccc4F)ccc3OCC2=O)cs1` the Potency was inconclusive: 89.1 µM [inhibitor, partial curve, poor fit].
In the case of `COc1ccccc1-c1ccc(CN2CCCCC2C(=O)NCCc2ccccc2)cc1` (configuration not stated), the Potency is reported as active: 39.8 µM.
For `O=C(O)C[C@@H]1CCN(C(=O)c2ccc(F)cc2)C[C@@H]1CCN1CCCCC1`, the Potency was “inactive”.
For `COc1cccc(N2C(=O)NC(=NC3CCCC3)C23CCCN(Cc2cccn2C)C3)c1` (configuration not stated), the Potency was inconclusive: 50.1 µM [inhibitor, partial curve, poor fit].
For `CN(Cc1ccccc1)C(=O)[C@@]12CCCC[C@H]1N(C)C(=O)CC2`, the Potency was “inactive”.
For `CC1Cc2cc(-c3ccnc4ncnn34)ccc2O1` (configuration not stated), the Potency was inconclusive: 50.1 µM [inhibitor, partial curve, poor fit].
With `Cc1cc(C)cc(NC(=O)N2C[C@@H](F)C[C@H]2C(=O)N2CCc3ccccc3C2)c1` the Potency was inconclusive: 70.8 µM [inhibitor, partial curve, poor fit].
For `O=C(c1cc2ccccc2[nH]1)N1CCCN(c2cc(-c3ccccc3)[nH]n2)CC1`, the Potency was inconclusive: 44.7 µM [inhibitor, partial curve, poor fit].
With `COc1ccccc1CC(=O)NC1CCN(c2cc(C(F)(F)F)nc(C)n2)CC1` the Potency was “inactive”.
In the case of `CCCCCNC(=O)C1CCCN1Cc1cccc(-c2ccc(C)c(Cl)c2)c1` (configuration not stated), the Potency is reported as inconclusive: 44.7 µM [inhibitor, partial curve, poor fit].
With `O=c1[nH]c2cc(-c3nc(-c4cccnn4)no3)ccc2n1C1CCC(O)CC1` (configuration not stated) the Potency was “inactive”.
With `O=C(NC1CCCCCC1)C1CCc2nnc(C3CCN([S+](=O)([O-])c4ccccc4Cl)CC3)n21` (configuration not stated) the Potency was inconclusive: 89.1 µM [inhibitor, partial curve, poor fit].
For `COc1cccc(-c2ccc(CN3CCN(c4cc(Cl)ncn4)C(=O)C3)cc2)c1`, the Potency was inconclusive: 56.2 µM [inhibitor, partial curve, poor fit].
In the case of `Cc1nn(-c2ccccc2)c2c1C(C(C)C)N(C1CN(C(=O)C3CCCC3)C1)C2=O` (configuration not stated), the Potency is reported as active: 39.8 µM.
For `COc1cc2c(cc1-c1ccc(OC(F)(F)F)cc1)OCC(C)(C)CC2CO` (configuration not stated), the Potency was inconclusive: 20 µM [inhibitor, partial curve, poor fit].
For `Cc1nc2cccnc2n1CC1CCCN(S(=O)(=O)c2cccc(F)c2)C1` (configuration not stated), the Potency was inconclusive: 39.8 µM [inhibitor, partial curve, poor fit].
In the case of `O=C(CCc1ccc(CC2CCN(C(=O)c3cccs3)CC2)cc1)NC1CC1`, the Potency is reported as inconclusive: 50.1 µM [inhibitor, partial curve, poor fit].
For `CN1CCN(C(=O)c2cc(-c3cccc(F)c3)nc3c2cnn3C)CC1`, the Potency was inconclusive: 56.2 µM [inhibitor, partial curve, poor fit].
For `Cc1noc(C)c1-c1cc(-c2ccc(N3CCOCC3)nc2)cn2cncc12`, the Potency was inconclusive: 56.2 µM [inhibitor, partial curve, poor fit].
For `COc1ccc(C(=O)N2CCC(Cc3nc(-c4cnccn4)no3)CC2)cc1`, the Potency was inconclusive: 28.2 µM [inhibitor, partial curve, poor fit].
For `O=Cc1cccc(-c2ccccc2F)c1`, the Potency was inconclusive: 39.8 µM [inhibitor, partial curve, poor fit].
In the case of `Cc1cc(C(=O)N2CCN(c3ccnc4ccnn34)CC2)ccc1Cl`, the Potency is reported as inconclusive: 28.2 µM [inhibitor, full curve].
For `Cc1ccc(C)c(S(=O)(=O)c2nnn3c2nc(N2CCCCC2)c2ccccc23)c1`, the Potency was inconclusive: 50.1 µM [inhibitor, single point].
With `COC(=O)CNC(=O)C1CCCN1Cc1ccc(-c2cccc(OC)c2)cc1` (configuration not stated) the Potency was inconclusive: 79.4 µM [inhibitor, partial curve, poor fit].
In the case of `CCc1nc(-c2ccc(C(=O)N3CCOCC3)cc2)n(-c2cccc(C)n2)n1`, the Potency is reported as “inactive”.
In the case of `COc1ccc(Nc2cnc3ccc(-c4ccc(OC)c(OC)c4)nn23)cn1`, the Potency is reported as active: 31.6 µM.
With `COc1ccc(-c2n[nH]c3c2CC(=O)N(Cc2ccccc2F)C3)cc1F` the Potency was inconclusive: 89.1 µM [inhibitor, partial curve, poor fit].
For `Cn1cc(-c2cnc(Nc3ccncc3)c3c2CCO3)cn1`, the Potency was active: 89.1 µM.
With `O=C(c1ccc(C(F)(F)F)cc1)N1CCC(C(=O)N2CCC(N3Cc4cccn4C3=O)CC2)CC1` the Potency was inconclusive: 50.1 µM [inhibitor, partial curve, poor fit].
With `Oc1ccccc1-c1cnc2n[nH]c(-c3ccc4c(c3)OCO4)c2n1` the Potency was inconclusive: 50.1 µM [inhibitor, partial curve, poor fit].
In the case of `CS(=O)(=O)c1ccc(-c2nc(C(=O)N3CCCC3)n3ccccc23)cc1`, the Potency is reported as “inactive”.
In the case of `Cc1nc(CC(=O)NC2CCCc3c2cnn3-c2ccc(C(C)(C)C)cc2)cs1` (configuration not stated), the Potency is reported as inconclusive: 39.8 µM [inhibitor, partial curve, poor fit].
With `Cc1ccc(C(=O)N2CCC3(CC2)NCCc2c3[nH]c3ccccc23)s1` the Potency was inconclusive: 44.7 µM [inhibitor, partial curve, poor fit].
In the case of `Cc1cc(C)cc(-c2ccc(C(=O)N3CCC(Oc4cccnc4)CC3)cn2)c1`, the Potency is reported as inconclusive: 50.1 µM [inhibitor, partial curve, poor fit].
With `N#Cc1ccc(CNC2(Cc3cc(-c4ccc(F)cc4)on3)COC2)cc1` the Potency was inconclusive: 100 µM [inhibitor, partial curve, poor fit].
In the case of `COc1ccc(CN2CC3(C2)C(=O)Nc2ccccc23)cc1`, the Potency is reported as inconclusive: 89.1 µM [inhibitor, partial curve].
With `CN(C)c1ccc(C(=O)N[C@H]2C[C@H]3C(=O)NC[C@@H](CCC(=O)NCc4cccnc4)N3C2)cc1` the Potency was “inactive”.
With `O=C(CN1Cc2nc(OCc3ccc(F)cc3)ccc2OCC1=O)N1CCCC1` the Potency was inconclusive: 79.4 µM [inhibitor, partial curve].
With `COc1ccc(-c2cccc(C(=O)N3CCN(C(=O)c4ccccc4)CC3)c2)nn1` the Potency was “inactive”.
In the case of `COC(=O)c1ccccc1NC(=O)N1CCC[C@@H](O)[C@H](NC(=O)c2ccc(OCc3c(C)noc3C)cc2)C1`, the Potency is reported as active: 39.8 µM.
In the case of `O=C(NC1CCN(Cc2cccc(-c3cccs3)c2)CC1)C1CCCC1`, the Potency is reported as “inactive”.
For `COC[C@H]1CCCN1C(=O)[C@@H](C)C1CC[C@@]2(C)CC[C@H](NC(=O)CC(C)(C)C)[C@@H](C)[C@@H]2[C@H]1O` (some centres not stated), the Potency was “inactive”.
In the case of `Cn1ncc2c(C(=O)NCc3ccc(F)cc3)cc(-c3ccsc3)nc21`, the Potency is reported as inconclusive: 31.6 µM [inhibitor, full curve, poor fit].
